The structures appear in SMILES notation. The campaign covered roughly 45,000 compounds. About 65 (0.1%) were called active. Calls come from the whole dose curve; as a rule, active = well fitted activation curve with a large enough effect; inconclusive = small, poorly fitted or top-dose-only effect; inactive = no such curve, though single readings can be large or run the other way. The list shows a part of the results.

The assay concerns the target Galactocerebrosidase (Homo sapiens) (UniProt P54803). Briefly: A Novel Cell-Based Assay to Identify Small Molecules for B -Galactocerebrosidase. Note: 0% is about no effect; nearly all actives have a fitted effect of over 65% in size. Conditions: 145M-Twi-hGALC-G270D cells (Twitcher mouse brain line with human GALC G270D), HMU-beta-Gal fluorescence, 48 h; series mostly up to 57.5 µM; activation: at the top concentration. In outline: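 Fluorescence readout: HMU-β-gal cleavage by mutant GALC (0.1 mM final, citrate/phosphate pH 5.2 with 1 mg/mL taurocholate), stopped with carbonate/bicarbonate plus Triton X-100. Cells: murine Twitcher 145M-Twi expressing human G270D GALC; qHTS for activators.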
Chain of UniProt P54803 (P54803 whole entry, looked up): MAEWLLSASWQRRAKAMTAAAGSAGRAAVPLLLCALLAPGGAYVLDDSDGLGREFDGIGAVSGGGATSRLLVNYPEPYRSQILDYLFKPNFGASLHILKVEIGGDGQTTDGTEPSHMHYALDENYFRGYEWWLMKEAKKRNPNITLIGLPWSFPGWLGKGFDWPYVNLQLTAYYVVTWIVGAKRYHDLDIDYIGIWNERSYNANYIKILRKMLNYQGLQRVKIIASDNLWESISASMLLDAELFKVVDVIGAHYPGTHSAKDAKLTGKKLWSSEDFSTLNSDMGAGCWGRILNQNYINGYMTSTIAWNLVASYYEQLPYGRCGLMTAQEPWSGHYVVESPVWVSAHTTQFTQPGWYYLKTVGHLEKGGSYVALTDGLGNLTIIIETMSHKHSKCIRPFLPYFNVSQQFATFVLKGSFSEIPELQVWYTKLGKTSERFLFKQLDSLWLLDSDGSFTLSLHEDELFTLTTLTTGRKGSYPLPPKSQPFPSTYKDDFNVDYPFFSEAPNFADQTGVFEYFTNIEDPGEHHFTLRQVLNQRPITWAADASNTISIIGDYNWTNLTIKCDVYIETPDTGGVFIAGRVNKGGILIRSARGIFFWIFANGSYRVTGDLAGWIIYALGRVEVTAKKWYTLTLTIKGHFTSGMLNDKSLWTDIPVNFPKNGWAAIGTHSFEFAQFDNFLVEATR
Regarding `CC(C)c1ccc(S(=O)(=O)c2cnc(SCC(=O)Nc3cccc(C(F)(F)F)c3)nc2N)cc1`, the “activation” value was inactive: -7.37%. For `COc1ccccc1-c1nnc(SCCOc2ccccc2C)o1` the value was inactive: -21.6%; for `COc1ccc(N2CC(C(=O)Nc3ccc(NC(C)=O)cc3)CC2=O)cc1` (configuration not stated), inactive: -5.74%. Turning to `O=C(Nc1ccc2nc(SCCOc3ccccc3Cl)sc2c1)c1cccs1`, the “activation” value was inactive: -24%. For `COC(=O)c1sccc1S(=O)(=O)N1CCN(c2ccccc2OC)CC1` the value was inactive: -3.49%; for `Cc1ccc(C)c(S(=O)(=O)c2nnn3c2nc(N2CCOCC2)c2sccc23)c1`, inactive: -9.58%. For `COc1ccc(NC(=O)C2=C(C)Nc3nc(CCCO)nn3C2c2ccc(O)cc2)cc1` (configuration not stated) the value was inactive: -6.05%; for `COCCCNC(=O)C(=O)NCC(c1ccc2c(c1)OCO2)N1CCOCC1` (configuration not stated), inactive: -8.05%. As for `CCN1C(=O)c2ccccc2S(=O)c2ccc(C(=O)NCc3ccc(F)cc3)cc21` (configuration not stated), the “activation” value was inactive: -17.3%.

As to `CCOc1ccc(C(c2c(O)cc(C)n(CCOC)c2=O)N2CCN(c3ccccc3F)CC2)cc1` (configuration not stated), the “activation” value is inactive: -8.82%. Under `CC(C)N(Cc1ccccc1)c1ncnc2c1nnn2C` stands inactive: -15.8%; under `Cc1cc(C)c2oc(C(=O)Nc3sc4c(c3C(=O)NCc3ccco3)CCCC4)cc(=O)c2c1`, inactive: 2.64%; under `CC(=O)N(CC(=O)N(C)C)c1ccccc1`, inactive: 17.8%. For `Cc1ccc(N(C(=O)COc2ccccc2C)S(=O)(=O)c2ccc(Cl)cc2)cc1` the value was inactive: -15.2%; for `O=C(NCc1cccnc1)c1nn(-c2ccccc2F)nc1CO`, inactive: 4.01%; for `Cc1ccc(CNC(=O)CCSCc2ccccc2F)cc1`, inactive: -10%. For the molecule `CCc1cccc(NC(=O)CCc2c(C)nc3c(c2C)c(=O)n(C)c(=O)n3C)c1`, the “activation” value is inactive: -6.16%. For `CCOc1ccc(NC(=O)N2CCC(CN3CCc4ccccc4C3)CC2)cc1` the value was inactive: -7.61%. With `COc1ccccc1NC(=O)Cn1c(=O)n(-c2ccc(C)cc2)c(=O)c2ccc(C(=O)NCc3ccco3)cc21`, the “activation” value was inactive: -11.9%. Under `COc1ccccc1N1CCN(c2ccc(=O)n(CC(=O)Nc3ccc(F)c(F)c3)n2)CC1` stands inactive: -17.6%. As for `Cc1c(NC(=O)c2ccc(Cl)cc2)cc(C(C)C)c(O)c1S(=O)(=O)c1ccc(Cl)cc1`, the “activation” value is inactive: -8.89%. For `CCOCCCNC(=O)c1ccc(NC(=O)N2CCCCc3ccccc32)cc1` the value was inactive: -6.97%. On to `Cc1ccc(Nc2c(-c3cc(Br)ccc3F)nc3cc(C)ccn23)cc1`, for which the “activation” value was inactive: -19.1%. With `Cc1ccc(NC(=O)c2cccc(N3CCCS3(=O)=O)c2)cc1`, the “activation” value is inactive: -11.8%. Regarding `O=C(NCc1ccc(Cl)cc1)C1CCCN(C(=O)c2cnn(-c3ccc(F)cc3)c2-n2cccc2)C1` (configuration not stated), the “activation” value is inactive: -9.04%.

In the case of `CCC(=O)N1CCc2cc(CNC(=O)C(CC)c3ccccc3)ccc21` (configuration not stated), the “activation” value was inactive: -14.1%. For `Cc1ccc(C)c(Nc2cc(C(=O)NC3CCCCC3)c3ccccc3n2)c1` the value was inactive: -5.71%; for `O=C(CCn1c(=O)c2cccn2c2ccc(F)cc21)NCCc1ccccc1`, inactive: 14.3%; for `CCN(C(=O)CCNC(=O)Cn1cnc2ccccc2c1=O)c1cccc(Cl)c1`, inactive: -14.7%. For `COc1ccc(C2=C(C)C(N3CCC(C(=O)Nc4cc(C)ccc4C)CC3)=NS2(=O)=O)cc1` the value was inactive: -10.2%. Take `CCCn1cc(S(=O)(=O)c2ccc(C)cc2)c(=O)c2cc(OC)c(OC)cc21`: the “activation” value was inactive: -12.3%.

Regarding `COc1cccc(NC(=O)C(=O)NCCc2csc(-c3ccc(C)cc3)n2)c1`, the “activation” value is inactive: -13.7%. Under `CCn1c(CN2CCCCC2)nc2cc(NC(=O)c3ccccc3[N+](=O)[O-])ccc21` stands inactive: -16.9%; under `CSc1ncc(C(=O)NCc2ccc(Cl)cc2)c(C(F)(F)F)n1`, inactive: -9.03%.

Turning to `CCOC(=O)CSc1nc(-c2ccccc2)cc(C(F)(F)F)c1C#N`, the “activation” value was inactive: -16.4%. Under `Cc1nn(-c2ccccc2)c(OC(=O)c2ccc(F)cc2)c1S(=O)(=O)c1ccccc1` stands inactive: -14.1%; under `COc1cccc(N2CCN(C(=O)c3cc4c(=O)n(Cc5cccs5)ccc4nc3C)CC2)c1`, inactive: -25.5%.

On to `Cc1ccc(CNC(=O)Cn2ncc3c([nH]c4ccc(C)cc43)c2=O)cc1`, for which the “activation” value is inactive: 1.39%. Under `COC(=O)c1ccc(Cl)cc1NC(=O)NCc1c(-n2cccc2)sc2c1CCCC2` stands inactive: -8.97%; under `CCOc1ccc(C(=O)Nc2ccc(C(=O)OCc3cc(=O)n4ccsc4n3)cc2)cc1`, inactive: -21.6%. Under `O=C(Nc1cccc2cccnc12)c1cccc2ccccc12` stands inactive: -17.7%; under `CCOC(=O)c1ccc(NC(=O)c2csc3c2CCCC3)cc1`, inactive: -11%. Under `CCCc1cc(=O)[nH]c(SCc2nc(-c3ccc(C)cc3)no2)n1` stands inactive: -4.58%; under `COc1ccc(CCNC(=O)c2ccc(-n3c(C)cc4c3CCCC4)cc2)cc1OC`, inactive: -15.2%.

In the case of `COc1ccccc1CCNC(=O)Cc1c(C)c2cc3c(C(C)(C)C)coc3c(C)c2oc1=O`, the “activation” value is inactive: 1.95%. Under `Cc1cccc(NC(=O)Cn2cnc(S(=O)(=O)N3CCCC3)c2)c1C` stands inactive: -0.995%; under `COc1ccccc1NC(=O)CN1C(=O)CC(c2ccc(C)c(C)c2)=Nc2ccccc21`, inactive: -14.7%. For `Cc1cccc(Cn2c(SCc3ccc(C(=O)N4CCC(C)CC4)cc3)nc3ccncc32)c1` the value was inactive: 1.12%. Under `CC(C)Oc1ccc(CNC(=O)Nc2ccc3c(c2)N(C)C(=O)c2ccccc2S3)cc1` stands inactive: -3.32%. Regarding `COc1ccc(N2CCN(S(=O)(=O)CCNC(=O)COc3cccc(OC)c3)CC2)cc1`, the “activation” value is inactive: -17%. For `CCCSc1ncc(Cl)c(C(=O)Nc2c(C(=O)Nc3ccccc3)oc3ccccc23)n1` the value was inactive: -9.26%. For `Cc1cccc(NC(=O)c2c(NC(=O)c3ccccc3)sc3c2CCCC3)c1` the value was inactive: 0.908%. `Cn1c(=O)c2c(ncn2CC(=O)O)n(C)c1=O`: the “activation” value was inactive: -7.56%.

Regarding `O=C(OCC1CCCO1)c1ccc2c(c1)N(Cc1cccc(Cl)c1)C(=O)c1ccccc1S2(=O)=O` (configuration not stated), the “activation” value is inactive: -9.54%. Under `O=C1O[C@H](CO)[C@@H](O)[C@H](O)[C@H]1O` stands inactive: -7.95%; under `Cc1ccc(NC(=O)NCCOCCn2c(=O)oc3ccccc32)cc1F`, inactive: -15.2%. Under `O=S(=O)(c1ccc(Br)cc1)c1nnn2c1nc(Nc1cccc(C(F)(F)F)c1)c1sccc12` stands inactive: 0.769%. For `CCOc1ccc(-c2cc3nc(C4CCN(C(=O)OC(C)(C)C)CC4)c(C(=O)Nc4ccc(C)cc4Cl)cn3n2)cc1` the value was inactive: -18.4%; for `COC(=O)c1c(C)sc(-c2c(-c3ccc4c(c3)OCCO4)[nH]c3[nH]c(=O)[nH]c(=O)c23)c1O`, inactive: 8.09%. Turning to `CN1CCSc2ccc(C(=O)NCc3ccccc3F)cc21`, the “activation” value is inactive: -5.56%. Under `Cc1cc(C)c2c(n1)nn1c(C)c(CCC(=O)NCc3ccccc3Cl)c(C)nc21` stands inactive: 6.47%; under `CCN(c1ccccc1)S(=O)(=O)c1ccc(NC(=O)c2cc(=O)c3cc(C)ccc3o2)cc1`, inactive: -13%.
